Assay results: PubChem BioAssay (NCATS)
“And” between values parts separate entries of the source, which are not always exact repeats. Equal entries are not always repeated. The inconclusive results got no clear call from the source; some entries with a clear call stand among them for comparison. For some assays here: Potencies of inconclusive entries are doubtful fits and often do not repeat. The source made the active and inactive calls. Unless noted, calls come from the whole dose curve; as a rule, active = well fitted curve in the direction sought with a large enough effect; inconclusive = small, poorly fitted or top-dose-only effect, or another doubt; inactive = no such curve, though single readings can be large; an effect the other way counts as inactive or inconclusive.

Columns and labels:
[1] = qHTS of pediatric cancer cell lines to identify multiple opportunities for drug repurposing: Primary screen for BT-37 cells (AID 1347094); note: potency is the fitted concentration of half-maximal effect
Method in brief: (§1)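 500-1,000 cells/well; 5 h pre-incubation 37 °C/5% CO2; compound pinned; 48 h; CellTiter-Glo, 15 min RT; luminescence. MIPE 11-pt from 0.78 nM, NPC 8-pt from 0.59 nM final. Bortezomib 2.3 µM final as positive control.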

[2] = qHTS of pediatric cancer cell lines to identify multiple opportunities for drug repurposing: Primary screen for NB1643 cells (AID 1347099); note: potency is the fitted concentration of half-maximal effect; nearly all actives have a fitted effect of over 50% in size
Method in brief: as §1

[3] = qHTS of pediatric cancer cell lines to identify multiple opportunities for drug repurposing: Primary screen for BT-12 cells (AID 1347101); note: potency is the fitted concentration of half-maximal effect; nearly all actives have a fitted effect of over 25% in size
Method in brief: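 Cells (500-1,000/well) rested 5 h, then received compounds for 48 h; metabolically active cells were measured by CellTiter-Glo luminescence. Final concentrations spanned up to 46 µM (MIPE, 11-point) or 0.59 nM-46 µM (NPC, 8-point) in primary screens, 11-point in follow-ups.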

[4] = qHTS of pediatric cancer cell lines to identify multiple opportunities for drug repurposing: Primary screen for Rh18 cells (AID 1347102); note: potency is the fitted concentration of half-maximal effect; nearly all actives have a fitted effect of over 65% in size
Method in brief: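 Cells (500-1,000/well) in growth media were settled 5 h at 37 degrees C, then given compounds for 48 h. Viability was read as CellTiter-Glo luminescence. Primary runs used MIPE at 11 points (0.78 nM-46 µM) and NPC at 8 points (0.59 nM-46 µM); follow-ups used 11 points.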

[5] = qHTS to identify inhibitors of the type 1 interferon - major histocompatibility complex class I in skeletal muscle: primary screen against the NCATS Mechanism Interrogation Plate v5.0 (MIPE) Libary (AID 1347411); settings: iHSKM cells + IFN-b, HiBiT-tagged MHC-I luminescence, 24 h; activity change, negative = inhibition: at 45.8 µM (top of the series); note: nearly all actives have a fitted effect of over 65% in size; note: potency is the fitted concentration of half-maximal effect;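 for activity change, negative = inhibition: plate controls were vehicle for no effect and reference inhibitor for full effect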
Method in brief: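 Luminescence from HiBiT-tagged endogenous HLA-B*08:01 served as the MHC class I read-out. CRISPR-engineered C25cl48 human myoblasts received 4.0 ng/ml IFN-beta plus compound for 24 hrs, with an 11-point, 1:3 series topping at 46 uM final.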

[6] = Quantitative High-Throughput drug screen in 47 multiple myeloma cell lines against the NCATS MIPE library collection: Karpas417_ECACC cell viability assay (AID 1918961); settings: Karpas417 myeloma viability, CellTiter-Glo ATP luminescence, 48 h; viability (% of DMSO): at 45.8 µM (top of the series); note: potency is the fitted concentration of half-maximal effect
Method in brief: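 Approved and investigational drugs from MIPE 4.0 were added by pin tool to 500 cells per well. After 48 hours at 37C, ATP-based CellTiter-Glo luminescence indicated remaining viability.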

[7] = Quantitative High-Throughput drug screen in 47 multiple myeloma cell lines against the NCATS MIPE library collection: JIM1_ECACC cell viability assay (AID 1918964; note: potency is the fitted concentration of half-maximal effect)
Method in brief: (§2)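 CellTiter-Glo luminescence (ATP) after 48 h compound exposure, 37C/5% CO2; 500 cells/well; MIPE 4.0 approved/investigational drugs pinned in; DMSO = 100%, media only = 0% viability.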

[8] = Quantitative High-Throughput drug screen in 47 multiple myeloma cell lines against the NCATS MIPE library collection: KMS21BM_JCRB cell viability assay (AID 1918974); settings: ATP luminescence, 48 h; viability: at 45.8 µM (top of the series); note: potency is the fitted concentration of half-maximal effect
Method in brief: as §2

[9] = Quantitative High-Throughput drug screen in 47 multiple myeloma cell lines against the NCATS MIPE library collection: LP1_DSMZ cell viability assay (AID 1918982); note: potency is the fitted concentration of half-maximal effect; nearly all actives have a fitted effect of over 35% in size
Method in brief: (§3)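 MIPE 4.0 approved/investigational drugs; 500 cells/well; 48 h 37 °C humidified 5% CO2; CTG luminescence readout; DMSO = 100%, media = 0% viability.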

[10] = Quantitative High-Throughput drug screen in 47 multiple myeloma cell lines against the NCATS MIPE library collection: L363_DSMZ cell viability assay (AID 1918984); settings: L363 myeloma viability, CellTiter-Glo ATP luminescence, 48 h; viability (% of control): at 45.8 µM (top of the series); note: potency is the fitted concentration of half-maximal effect; nearly all actives have a fitted effect of over 40% in size
Method in brief: as §3

[11] = qHTS for identification of novel therapeutic agents for treatment of microphthalmiaassociated transcription factor (MiT) renal cell carcinoma (RCC) (AID 1963991; calls by dose curve; note: potency is the fitted concentration of half-maximal effect); settings: TFE3-RCC UOK109 viability, CellTiter-Glo, 48 h; active = Z-AUC below -0.8 in all three lines
Method in brief: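 Viability of three TFE3-fusion renal carcinoma lines measured by CellTiter-Glo after 48 h treatment with each of 1912 compounds at 11 concentrations. Responses scaled between DMSO (100%) and empty wells (0%) before curve fitting.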

[12] = test system: UISO; assay: qHTS assay to identify novel small-molecules to repurpose for Merkel cell carcinoma treatment (AID 1296009); settings: MCC and control cell lines, CellTiter-Glo viability, 72 h; activity change, negative = cytotoxicity: at 46 µM (top of the series); note: potency is the fitted concentration of half-maximal effect; nearly all actives have a fitted effect of over 60% in size
Method in brief: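 qHTS format: cells treated with library compounds in DMSO across 8 (NPC) or 11 (MIPE) concentrations. Readout after 72 hr at 37 degree celsius was CellTiter-Glo luminescence.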

[13] = Primary fluorescence-based thiol-reactive (MSTI) qHTS assay for identification of artifact compounds. (AID 1845221); note: potency is the fitted concentration of half-maximal effect;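 note: thiol-reactive compounds lower the probe fluorescence signal; nearly all actives have a fitted effect of over 65% in size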
Method in brief: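 Reactivity toward the thiol probe MSTI (4 uM) is scored by fluorescence at Ex/Em 525/598 nm after 1 h at room temperature. Acetyl-MSTI and MSTI define the activity scale.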

[14] = Primary redox qHTS assay for identification of artifact compounds. (AID 1845223); settings: Amplex Red/HRP redox cycling with DTT, fluorescence; redox activity (% of DA3003): at 53.8 µM (top of the series); note: potency is the fitted concentration of half-maximal effect
Method in brief: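 Amplex Red (25 uM) and HRP (250 mU/mL) in HBSS, with compounds for 15 min, then 250 uM DTT for 30 min, room temperature, dark. Fluorescence 525/598 nm read; normalized to DMSO and 10 uM DA3003; Hill fit.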

[15] = qHTS assay to identify inhibitors of the type 1 interferon - major histocompatibility complex class I in skeletal muscle: Counter screen cell viability and HiBit confirmation (AID 1347412); settings: iHSKM muscle cells + IFN-b, HiBiT or CellTiter-Glo, 24 h; note: nearly all actives have a fitted effect of over 60% in size; note: potency is the fitted concentration of half-maximal effect; for activity change, negative = inhibition: % is set by controls: 0 for no effect and ±100 for the full control effect
Method in brief: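 HLA-B*08:01–HiBiT knock-in immortalized human myoblasts (C25cl48) stimulated with 4.0 ng/ml human IFN-beta and dosed with compound in a 12-point 1:3 titration (top final 46 uM). After 24 hrs at 37 C, HiBiT lytic luminescence or CellTiter Glo ATP read out.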

[16] = test system: Zika virus NS2B-NS3 protease (linked construct); assay: Primary screen NINDS Rhodamine qHTS for Zika virus inhibitors (AID 1347160); settings: activity change, negative = inhibition: at 57.1 µM (top of the series) unless noted; note: nearly all actives have a fitted effect of over 55% in size; for activity change, negative = inhibition: % is set by controls: 0 for no effect and ±100 for the full control effect
Method in brief: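 Percent inhibition, normalized to uninhibited and enzyme-free controls, is fitted to a 4-parameter Hill equation. Fluorescence change comes from a 15-min cleavage of 1.5 microM bis-peptide Rhodamine110 substrate by 25 nM linked NS2B-NS3 at room temperature.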

[17] = qHTS of pediatric cancer cell lines to identify multiple opportunities for drug repurposing: Primary screen for DAOY cells (AID 1347090); settings: DAOY medulloblastoma viability, CellTiter-Glo luminescence, 48 h; activity change, negative = cytotoxic: at 46 µM (top of the series); note: potency is the fitted concentration of half-maximal effect; nearly all actives have a fitted effect of over 55% in size
Method in brief: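 Eight- or eleven-point concentration series, 48 h treatment at 37 degrees C in growth media; readout CellTiter-Glo luminescence. Potency and efficacy were taken from the concentration-response curves.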

[18] = qHTS of pediatric cancer cell lines to identify multiple opportunities for drug repurposing: Primary screen for RD cells (AID 1347104); settings: RD rhabdomyosarcoma viability, CellTiter-Glo luminescence, 48 h; activity change, negative = cytotoxic: at 46 µM (top of the series); note: potency is the fitted concentration of half-maximal effect; nearly all actives have a fitted effect of over 55% in size
Method in brief: as §1

[19] = qHTS of pediatric cancer cell lines to identify multiple opportunities for drug repurposing: Primary screen for Rh41 cells (AID 1347108); note: potency is the fitted concentration of half-maximal effect; nearly all actives have a fitted effect of over 70% in size
Method in brief: as §1

[20] = target: Cytochrome P450 2D6 (Homo sapiens) (UniProt P10635); assay: Cytochrome P450 family 2 subfamily D member 6 (CYP2D6) small molecule antagonists: luciferase biochemical (cell-free) qHTS assay (AID 1645840; active = well fitted curve in the direction sought with a large enough effect in the repeat runs; inconclusive = weak or mixed curves; inactive = no such curve, though single readings can be large; an effect the other way counts as inactive or inconclusive; note: potency is the fitted concentration of half-maximal effect; nearly all actives have a fitted effect of over 55% in size)
Method in brief: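 P450-Glo luminescent screen: recombinant CYP2D6 enzyme–proluciferin substrate mix preincubated with compound 10 min at room temperature, then NADPH regeneration added for 1 h at room temperature. Detection reagent added for 20 min; luciferin light read as relative luminescence units.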
Tags give direction and shape of the fitted curve.

Chain of UniProt P10635 (P10635 whole entry, looked up): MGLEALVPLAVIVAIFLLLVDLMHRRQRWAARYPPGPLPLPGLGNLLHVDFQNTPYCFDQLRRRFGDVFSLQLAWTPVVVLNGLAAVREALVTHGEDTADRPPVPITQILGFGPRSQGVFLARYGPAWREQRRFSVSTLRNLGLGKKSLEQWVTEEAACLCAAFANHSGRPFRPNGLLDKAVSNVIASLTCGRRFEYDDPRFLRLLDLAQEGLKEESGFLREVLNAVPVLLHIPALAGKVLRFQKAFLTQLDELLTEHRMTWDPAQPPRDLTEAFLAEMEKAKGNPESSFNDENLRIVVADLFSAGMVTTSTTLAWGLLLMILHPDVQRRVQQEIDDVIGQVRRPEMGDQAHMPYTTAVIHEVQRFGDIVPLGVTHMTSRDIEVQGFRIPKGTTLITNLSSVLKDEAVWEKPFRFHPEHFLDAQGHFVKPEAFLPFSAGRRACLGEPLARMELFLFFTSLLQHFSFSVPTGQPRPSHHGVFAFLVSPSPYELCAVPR

COc1cc(C)c(Sc2cnc(NC(=O)c3ccc(CNC(C)C(C)C)cc3)s2)cc1C(=O)N1CCN(C(C)=O)CC1 (centres undefined)
active: Potency [3] 24.3 µM | Potency [10] 9.35 µM | Potency [12] 18.7 µM
inconclusive: Potency [1] 6.85 µM [cytotoxic, partial curve] | Potency [2] 18.7 µM [cytotoxic, partial curve] | Potency [4] 2.64 µM [cytotoxic, partial curve] | Potency [5] 33 µM [inhibitor, partial curve, poor fit] | Potency [6] 11.8 µM [cytotoxic, partial curve, poor fit] | Potency [8] 0.0105 µM [cytotoxic, full curve, poor fit] | Potency [9] 6.62 µM [cytotoxic, partial curve] | Potency [11] 26.4 µM [falling, partial curve]
inactive: Potency [7]

C/C=C(/C)C(=O)O[C@H]1C=C(CO)C(=O)[C@H](OC(=O)/C(C)=C/CO)[C@H]1C(C)C
inconclusive: Potency [13] 26.1 µM [inhibitor, single point]

Cc1c[nH]c2ncnc(N3CCC(CN)(C(=O)Nc4cccc(OC(=O)N(C)C)c4)CC3)c12
inconclusive: Potency [5] 18.6 µM [inhibitor, partial curve, poor fit] and 2.94 µM [inhibitor, full curve] | Potency [14] 29.9 µM [activator, single point] | Potency ([15]; HiBiT) 15.7 µM [inhibitor, partial curve] | activity change, negative = inhibition ([15]; Viability, at 45.9 µM (top of the series)) -33% [cytotoxic]

C[C@@H](O[C@H]1OCCN(Cc2n[nH]nc2CN(C)C)[C@H]1c1ccc(F)cc1)c1cc(C(F)(F)F)cc(C(F)(F)F)c1
inactive: Potency [16]

C[C@@]12C(=O)OC(=O)[C@@]1(C)C1CCC2O1
active: Potency [17] 2.96 µM | Potency [2] 1.48 µM | Potency [18] 5.9 µM | Potency [19] 3.72 µM | Potency [6] 2.96 µM | Potency [9] 3.72 µM | Potency [10] 3.72 µM
inconclusive: Potency [8] 33.2 µM [rising, partial curve, poor fit] | Potency [11] 1.66 µM [falling, full curve]

COc1cccc2c1C(=O)c1c(O)c3c(c(O)c1C2=O)C[C@@](O)(C(C)=O)C[C@H]3O[C@H]1C[C@H](N)[C@H](O)[C@H](C)O1
active: Potency [3] 0.0769 µM | Potency [18] 0.0743 µM | Potency [6] 0.0469 µM | Potency [9] 0.209 µM | Potency [10] 0.118 µM | Potency [11] 0.296 µM | Potency [12] 0.0469 µM
inconclusive: Potency [2] 0.0296 µM [cytotoxic, full curve, poor fit] | Potency [4] 0.0526 µM [cytotoxic, full curve, poor fit]

CC[C@]12C=CCN3CC[C@@]4(c5cc([C@@]6(C(=O)OC)C[C@H]7C[C@@H](C(C)(F)F)CN(Cc8c6[nH]c6ccccc86)C7)c(OC)cc5N(C)[C@H]4[C@@](O)(C(=O)OC)[C@@H]1OC(C)=O)[C@@H]32
inconclusive: Potency [5] 0.155 µM [inhibitor, full curve] | Potency ([15]; HiBiT) 0.625 µM [inhibitor, full curve] | Potency ([15]; Viability) 1.57 µM [cytotoxic, full curve]

Cc1cc(F)c(C(=O)Nc2cccc(-c3nncn3C(C)C)n2)cc1-n1cnc(C2CC2)c1
inconclusive: activity change, negative = inhibition [5] -50.6% [inhibitor] | Potency [14] 13 µM [activator, partial curve]
inactive: Potency [13]

Cc1ccc(O)cc1Nc1ccnc(Nc2cccc(C(N)=O)c2)n1
inconclusive: Potency [20] 26.8 µM [inhibitor, single point]
inactive: Potency [16]

CC(C)n1cnc2c(-c3cnc(N)nc3)nc(N3CCOCC3)nc21
inactive: Potency [14]

Cc1cc(Nc2cc(CN3CCOCC3)c3nc(C)c(Cc4ccc(Cl)cc4F)n3n2)n[nH]1
inconclusive: Potency [1] 30.6 µM [cytotoxic, single point] | Potency [2] 13.2 µM [cytotoxic, partial curve, poor fit] | Potency [3] 27.3 µM [cytotoxic, single point] | Potency [13] 37.7 µM [inhibitor, partial curve, poor fit] | Potency [6] 37.2 µM [rising, partial curve, poor fit] | Potency [8] 37.2 µM [rising, partial curve, poor fit] | Potency [9] 20.9 µM [cytotoxic, partial curve, poor fit] | Potency [10] 7.43 µM [cytotoxic, partial curve, poor fit] | Potency [11] 11.8 µM [falling, full curve] | Potency ([15]; Viability) 15.7 µM [cytotoxic, partial curve]
active: Potency [4] 13.2 µM | Potency [18] 20.9 µM | Potency [19] 14.8 µM | Potency [7] 0.418 µM
